Laboratory results published in the RNAGym collection of RNA variant scans (doi:10.1093/nar/gkz1192).
Read counts are not given, so values of variants with three or more changes are uncertain.

B1: CPEB3 Ribozyme (parent)
chain: UAACAGGGGGCCACAGCAGAAGCGUUCACGUCGCAGCCCCUGUCAGAUUCUGGUGAAUCUGCGAAUUCUGCUGUAUAUCUC

Variants of: B1
Test: self-cleavage, relative activity (ratio to wild type); higher = more cleavage; in vitro, sequencing
In short: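 After error-prone PCR and barcoding, CPEB3 ribozyme mutant libraries were transcribed with T7 RNA polymerase at 37°C for 5 hours, then given 15 min with DNase I before an EDTA stop, and they cleaved during both steps. Reverse transcription with template switching preceded Illumina sequencing. Relative activity divides a variant's cleaved/total read fraction by the unmutated ribozyme's. At least 5 reads were required per variant, and three batches were averaged.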

Row | Variant | self-cleavage
1 | UAACAGGGGGCCUCAGCAGAGGCGUUCACGUCGCAGCCCCUGUCAGACCCUGGUGAAUCUGCGAAUUCUGCUGUAUAUCCC [A13U A21G U48C U49C U80C] | 0.07
2 | UAACAGGGGGCCUCAGCAGAGGCGUUCACGUCGCAGCCCCUGUCAGAUUCCGGUGAAUCCGCGAAUUCUGCUGUAUAUCUC [A13U A21G U51C U60C] | 0.11
3 | UAACAGGGGGCCUCAGCAGAGGCGUUCACGUCGCAGCCCCUGUCAGAUUCUGGAGAAUCUGCGAAUUCUGCUGUGUAUCUC [A13U A21G U54A A75G] | 0.36
4 | UAACAGGGGGCCUCAGCAGAUGCGUUCACGUCGCAGCCCCUGCUAGAUUCUGGUGAAUCUGCGAAUUCCGCUGUAUACCUC [A13U A21U U43C C44U U69C U78C] | 0.18
5 | UAACAGGGGGCCUCAGCAGAUGCGUUCACGUCGCAGCCCCUGUCAGAUUCUGGCGAAUCUGCGAAUCCUGCUGUGUAUCUC [A13U A21U U54C U67C A75G] | 0.07
6 | UAACAGGGGGCCUCAGCAGAAGCGUUCCCGUCGCAGCCCCUGUCUGAUACUGGUGAAUCUGCGAAUUCUGCAGUAUAUCUC [A13U A28C A45U U49A U72A] | 0.16
7 | UAACAGGGGGCCUCAGCAGAAGCGUUCCCGUCGCAGCCCCUGUCAGAUUCCGGUGAAUCUGCGAAUUCUGCUGUAUACCUC [A13U A28C U51C U78C] | 0.63
8 | UAACAGGGGGCCUCAGCAGAAGCGUUCGCGUCGCGGCCCCUGUCAGAUUCUGGCGAAUCUGCGAAUUCUGCUGUAUAUCCC [A13U A28G A35G U54C U80C] | 1.19
9 | UAACAGGGGGCCUCAGCAGAAGCGUUCGCGUCGCUGCCCCUGUCAGAUUCCGGUGAAACUGCGAAUUCUGCUGUAUACCUC [A13U A28G A35U U51C U58A U78C] | 0.08
10 | UAACAGGGGGCCUCAGCAGAAGCGUUCGCGUCGCAGCCCCUGUCAGGUUCUGGCGAAUCUGCGAAUUCUGCUGUAUAUCUC [A13U A28G A47G U54C] | 0.49
11 | UAACAGGGGGCCUCAGCAGAAGCGUUCGCGUCGCAGCCCCUGUCAGAUUCUGGUGAGUCUGCGAAUUCUGCUGUAUAUCAC [A13U A28G A57G U80A] | 0.35
12 | UAACAGGGGGCCUCAGCAGAAGCGUUCGCGUCGCAGUCCCUGUCGGAUUCUGGUGAAUCUGCGAGUUCUGCAGUAUAUCCC [A13U A28G C37U A45G A65G U72A U80C] | 0.05
13 | UAACAGGGGGCCUCAGCAGAAGCGUUCGCGUCGCAGUCCCUGUCGGAUUCAGGUGAAUCUGCGGAUUCUGCUGUAUAUCUC [A13U A28G C37U A45G U51A A64G] | 0.09
14 | UAACAGGGGGCCUCAGCAGAAGCGUUCGCGUCGCAGCCCCUGUCAGAUUAUGGUGAAUCUGCGAAUUCUGCUGUAUAUCCC [A13U A28G C50A U80C] | 0.61
15 | UAACAGGGGGCCUCAGCAGAAGCGUUCGCGCCGCAGCCCCUGUCAGAUUCUGGUGAAUCUGCGAAUUCUGCAGUAUACCUC [A13U A28G U31C U72A U78C] | 0.1
16 | UAACAGGGGGCCUCAGCAGAAGCGUUCGCGUCGCAGCCCCAGUCAGUUUCUGGUGAAUCUGCGAAUUCUGCUGUAUACCUC [A13U A28G U41A A47U U78C] | 0.05
17 | UAACAGGGGGCCUCAGCAGAAGCGUUCGCGUCGCAGCCCCUGUCAGAUCCUGGUGAAUCUGCGAAUUCUGCUGUAUAUCUC [A13U A28G U49C] | 0.17

Row | Variant | self-cleavage
18 | UAACAGGGGGCCUCAGCAGAAGCGUUCGCGUCGCAGCCCCUGUCAGAUCCUGGUGAGUCUGCGAAUUCUGCAGUAUAUCUC [A13U A28G U49C A57G U72A] | 0.13
19 | UAACAGGGGGCCUCAGCAGAAGCGUUCGCGUCGCAGCCCCUGUCAGAUUCCGGUGAAUCUGCAAGUUCUGCUGUAUAUCUU [A13U A28G U51C G63A A65G C81U] | 0.23
20 | UAACAGGGGGCCUCAGCAGAAGCGUUCGCGUCGCAGCCCCUGUCAGAUUCUGGUGAAUCUGCGAAUUCAGCUGUAAAUCUC [A13U A28G U69A U76A] | 0.13
21 | UAACAGGGGGCCUCAGCAGAAGCGUUCGCGUCGCAGCCCCUGUCAGAUUCUGGUGAAUCUGCGAAUUCUGCCGUAUAUCUC [A13U A28G U72C] | 0.69
22 | UAACAGGGGGCCUCAGCAGAAGCGUUCGCGUCGCAGCCCCUGUCAGAUUCUGGUGAAUCUGCGAAUUCUGCUGCGUAUCUC [A13U A28G U74C A75G] | 1.11
23 | UAACAGGGGGCCUCAGCAGAAGCGUUCUCGUCGCUGCCCCCGUCAGAUUCUGGUGAAUCUGCGAAUUCUGCUGUUUAUCUC [A13U A28U A35U U41C A75U] | 0.5
24 | UAACAGGGGGCCUCAGCAGAAGCGUUCUCGCCGCAGCCCCUGUCAGAUUCUGGUGAAUCUGCGAAUUCUGCUGUAUACCUC [A13U A28U U31C U78C] | 0.68
25 | UAACAGGGGGCCUCAGCAGAAGCGUUCUCGUCGCAGCCCCUGUCAGAUUCUGGUGAAUCCGCGGAUUCUGCUGUAUAUCUC [A13U A28U U60C A64G] | 0.37
26 | UAACAGGGGGCCUCAGCAGAAGCGUUCUCGUCGCAGCCCCUGUCAGAUUCUGGUGAAUCUGCGAAUUCUGCUGUAUACCUC [A13U A28U U78C] | 1.01
27 | UAACAGGGGGCCUCAGCAGAAGCGUUCACGUCGCGGCCCGUGUCAGAUUCUGGUGAGACUGCGGAUUCUUCUGUAUAUCUC [A13U A35G C40G A57G U58A A64G G70U] | 0.03
28 | UAACAGGGGGCCUCAGCAGAAGCGUUCACGUCGCGGCCCCUGUCAGAUUCCGGUGAAUCUGCGAAUUCUGCUGUAUAUCCC [A13U A35G U51C U80C] | 1.25
29 | UAACAGGGGGCCUCAGCAGAAGCGUUCACGUCGCUGCCCCUGUCAGAUUCUGGUGAGUCAGCGAGUUCUGCUGUAUAUCUC [A13U A35U A57G U60A A65G] | 0.04
30 | UAACAGGGGGCCUCAGCAGAAGCGUUCACGUCGCUGCCCCUGUCAGAUUCUGGUGAAUCUGCGUAUGCAGCUGUAUAUCUC [A13U A35U A64U U67G U69A] | 0.08
31 | UAACAGGGGGCCUCAGCAGAAGCGUUCACGUCGCUGCCCCUGUCAGAUUCUGGUCAGUCUGCGAAUUCUGCUGUAUAUCUC [A13U A35U G55C A57G] | 0.09
32 | UAACAGGGGGCCUCAGCAGAAGCGUUCACGUCGCUGCCCCAGUCAGAUUCUGGUGAAUCUGCGAAUUCUGCUGUAUAUCUC [A13U A35U U41A] | 0.19
33 | UAACAGGGGGCCUCAGCAGAAGCGUUCACGUCGCUGCCCCGGUCAGAUUCUGGUGAAUCUGCGAAUUCUGCUGUAUAUCUC [A13U A35U U41G] | 0.14
34 | UAACAGGGGGCCUCAGCAGAAGCGUUCACGUCGCAGCCCCUGUCCGAUUCUGGCGAAUCUGCGAAUUCUGCUGUAUAUCUC [A13U A45C U54C] | 0.39
